# Assay results reported in the supplement of paper PMC8728848.
# Some of the results follow.
# B1: CBM32-4 (Clostridium perfringens), P26831 (protein)
# chain: MGSSHHHHHHSSGLVPRGSHMASVYEPSLVDAYVGDDGAKKAVDGDLKTRVKFLGAPSTGDTIVYDLGQEILVDNLKYVVLDTEVDHVRDGKIQLSLDGETWTDAINIGDGVENGVDDMFSTPLKNGYKHGNQSGGIVPIDSAYVEGDNLNQKARYVRILFTAPYRHRWTVINELMINNGEYIPTVNDPT
# Tests used:
# Test in all cases: glycan array binding signal (z-score within array); higher = stronger binding
# Settings in all cases: glycan notation: IUPAC condensed, linker removed
# [1] = target: Fuc(a1-3)[GalNAc(b1-4)]GlcNAc
# Summary of the method: (§1)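 The Consortium for Functional Glycomics database supplied 3228 glycan arrays, of which those lacking an available protein sequence were dropped. The binding signal, a within-array Z-score, was averaged across arrays of the same protein sequence and across linkers. Negative scores can be read as non-binding.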
# Fuc(a1-4)GlcNAc = target: Fuc(a1-4)GlcNAc
# Summary of the method: as §1
# Fuc(b1-3)GlcNAc = target: Fuc(b1-3)GlcNAc
# Summary of the method: as §1
# Gal(a1-2)Gal = target: Gal(a1-2)Gal
# Summary of the method: as §1
# Gal(a1-3)Gal = target: Gal(a1-3)Gal
# Summary of the method: as §1
# Gal(a1-3)Gal(b1-3)GlcNAc = target: Gal(a1-3)Gal(b1-3)GlcNAc
# Summary of the method: as §1
# Gal(a1-3)Gal(b1-4)Glc = target: Gal(a1-3)Gal(b1-4)Glc
# Summary of the method: as §1
# Gal(a1-3)Gal(b1-4)GlcNAc = target: Gal(a1-3)Gal(b1-4)GlcNAc
# Summary of the method: as §1
# [2] = target: Gal(a1-3)Gal(b1-4)[Fuc(a1-3)]GlcNAc
# Summary of the method: as §1
# Gal(a1-3)GalNAc = target: Gal(a1-3)GalNAc
# Summary of the method: as §1
# [3] = target: Gal(a1-3)[Gal(a1-4)]Gal(b1-4)GlcNAc
# Summary of the method: as §1
# Gal(a1-4)Gal(b1-4)Glc = target: Gal(a1-4)Gal(b1-4)Glc
# Summary of the method: as §1
# Gal(a1-4)Gal(b1-4)GlcNAc = target: Gal(a1-4)Gal(b1-4)GlcNAc
# Summary of the method: as §1
# Gal(a1-4)GlcNAc = target: Gal(a1-4)GlcNAc
# Summary of the method: as §1
# Gal(a1-6)Glc = target: Gal(a1-6)Glc
# Summary of the method: as §1
# Gal(b1-2)Gal = target: Gal(b1-2)Gal
# Summary of the method: as §1
# Gal(b1-3)Gal = target: Gal(b1-3)Gal
# Summary of the method: as §1
# Gal(b1-3)Gal(b1-4)GlcNAc = target: Gal(b1-3)Gal(b1-4)GlcNAc
# Summary of the method: as §1
# Gal(b1-3)GalNAc = target: Gal(b1-3)GalNAc
# Summary of the method: as §1
# [4] = target: Gal(b1-3)GalNAc(b1-3)Gal(a1-4)Gal(b1-4)Glc
# Summary of the method: as §1
# [5] = target: Gal(b1-3)GalNAc(b1-4)Gal(b1-4)Glc
# Summary of the method: as §1
# [6] = target: Gal(b1-3)GalNAc(b1-4)[Neu5Ac(a2-3)]Gal(b1-4)Glc
# Summary of the method: as §1
# Gal(b1-3)GlcNAc = target: Gal(b1-3)GlcNAc
# Summary of the method: as §1
# [7] = target: Gal(b1-3)GlcNAc(b1-2)Man(a1-3)[Gal(b1-3)GlcNAc(b1-2)Man(a1-6)]Man(b1-4)GlcNAc(b1-4)GlcNAc
# Summary of the method: as §1
# [8] = target: Gal(b1-3)GlcNAc(b1-3)Gal(b1-3)GlcNAc
# Summary of the method: as §1
# [9] = target: Gal(b1-3)GlcNAc(b1-3)Gal(b1-4)Glc
# Summary of the method: as §1
# [10] = target: Gal(b1-3)GlcNAc(b1-3)Gal(b1-4)GlcNAc
# Summary of the method: as §1
# [11] = target: Gal(b1-3)[Fuc(a1-4)]GlcNAc
# Summary of the method: as §1
# [12] = target: Gal(b1-3)[Fuc(a1-4)]GlcNAc(b1-3)Gal(b1-3)[Fuc(a1-4)]GlcNAc
# Summary of the method: as §1
# [13] = target: Gal(b1-3)[Fuc(a1-4)]GlcNAc(b1-3)Gal(b1-4)GlcNAc
# Summary of the method: as §1
# [14] = target: Gal(b1-3)[Fuc(a1-4)]GlcNAc(b1-3)Gal(b1-4)[Fuc(a1-3)]GlcNAc
# Summary of the method: as §1
# [15] = target: Gal(b1-3)[GlcNAc(b1-6)]GalNAc
# Summary of the method: as §1
# [16] = target: Gal(b1-3)[Neu5Ac(a2-6)]GalNAc
# Summary of the method: as §1
# [17] = target: Gal(b1-3)[Neu5Ac(a2-6)]GlcNAc(b1-6)Gal(b1-4)Glc
# Summary of the method: as §1
# [18] = target: Gal(b1-3)[Neu5Ac(b2-6)]GalNAc
# Summary of the method: as §1
# [19] = target: Gal(b1-4)GalNAc(a1-3)[Fuc(a1-2)]Gal(b1-4)GlcNAc
# Summary of the method: as §1
# [20] = target: Gal(b1-4)GalNAc(b1-3)[Fuc(a1-2)]Gal(b1-4)GlcNAc
# Summary of the method: as §1
# Gal(b1-4)Glc = target: Gal(b1-4)Glc
# Summary of the method: as §1
# Gal(b1-4)Glc6S = target: Gal(b1-4)Glc6S
# Summary of the method: as §1
# Gal(b1-4)GlcNAc = target: Gal(b1-4)GlcNAc
# Summary of the method: as §1
# [21] = target: Gal(b1-4)GlcNAc(a1-6)Gal(b1-4)GlcNAc
# Summary of the method: as §1
# [22] = target: Gal(b1-4)GlcNAc(b1-2)Man(a1-3)[Gal(b1-4)GlcNAc(b1-2)Man(a1-6)]Man(b1-4)GlcNAc(b1-4)GlcNAc
# Summary of the method: as §1
# [23] = target: Gal(b1-4)GlcNAc(b1-3)Gal(b1-3)GlcNAc
# Summary of the method: as §1
# [24] = target: Gal(b1-4)GlcNAc(b1-3)Gal(b1-4)Glc
# Summary of the method: as §1
# [25] = target: Gal(b1-4)GlcNAc(b1-3)Gal(b1-4)GlcNAc
# Summary of the method: as §1
binder,measurement,setting,value
B1,glycan array binding signal (z-score),[1],-0.411
same,glycan array binding signal (z-score),Fuc(a1-4)GlcNAc,0.045
same,glycan array binding signal (z-score),Fuc(b1-3)GlcNAc,-0.264
same,glycan array binding signal (z-score),Gal(a1-2)Gal,-0.369
same,glycan array binding signal (z-score),Gal(a1-3)Gal,-0.431
same,glycan array binding signal (z-score),Gal(a1-3)Gal(b1-3)GlcNAc,-0.458
same,glycan array binding signal (z-score),Gal(a1-3)Gal(b1-4)Glc,-0.149
same,glycan array binding signal (z-score),Gal(a1-3)Gal(b1-4)GlcNAc,-0.419
same,glycan array binding signal (z-score),[2],-0.501
same,glycan array binding signal (z-score),Gal(a1-3)GalNAc,-0.431
same,glycan array binding signal (z-score),[3],-0.415
same,glycan array binding signal (z-score),Gal(a1-4)Gal(b1-4)Glc,-0.204
same,glycan array binding signal (z-score),Gal(a1-4)Gal(b1-4)GlcNAc,-0.163
same,glycan array binding signal (z-score),Gal(a1-4)GlcNAc,-0.286
same,glycan array binding signal (z-score),Gal(a1-6)Glc,-0.113
same,glycan array binding signal (z-score),Gal(b1-2)Gal,-0.149
same,glycan array binding signal (z-score),Gal(b1-3)Gal,-0.33
same,glycan array binding signal (z-score),Gal(b1-3)Gal(b1-4)GlcNAc,-0.57
same,glycan array binding signal (z-score),Gal(b1-3)GalNAc,-0.454
same,glycan array binding signal (z-score),[4],-0.307
same,glycan array binding signal (z-score),[5],-0.39
same,glycan array binding signal (z-score),[6],-0.49
same,glycan array binding signal (z-score),Gal(b1-3)GlcNAc,-0.387
same,glycan array binding signal (z-score),[7],-0.525
same,glycan array binding signal (z-score),[8],-0.398
same,glycan array binding signal (z-score),[9],-0.494
same,glycan array binding signal (z-score),[10],-0.292
same,glycan array binding signal (z-score),[11],-0.34
same,glycan array binding signal (z-score),[12],-0.454
same,glycan array binding signal (z-score),[13],-0.418
same,glycan array binding signal (z-score),[14],-0.268
same,glycan array binding signal (z-score),[15],-0.468
same,glycan array binding signal (z-score),[16],-0.271
same,glycan array binding signal (z-score),[17],-0.491
same,glycan array binding signal (z-score),[18],-0.406
same,glycan array binding signal (z-score),[19],-0.545
same,glycan array binding signal (z-score),[20],-0.508
same,glycan array binding signal (z-score),Gal(b1-4)Glc,-0.332
same,glycan array binding signal (z-score),Gal(b1-4)Glc6S,0.289
same,glycan array binding signal (z-score),Gal(b1-4)GlcNAc,-0.4
same,glycan array binding signal (z-score),[21],-0.326
same,glycan array binding signal (z-score),[22],-0.434
same,glycan array binding signal (z-score),[23],-0.143
same,glycan array binding signal (z-score),[24],-0.422
same,glycan array binding signal (z-score),[25],-0.343
